The text below walks through data of patent US9993566B2, “SEZ6 modulators and methods of use” (AbbVie Stemcentrx LLC, priority 2013, dated 2018).

The target of assay [1] is T1, human recombinant SEZ6-His (Homo sapiens, UniProt Q53EL9).
T1 construct: The cDNA fragment encoding the ECD of SEZ6 was amplified from the hSEZ6 cDNA clone; IgK signal peptide (N, cleaved yes); made in house; host or cells: HEK-293T and/or CHO-S
As to the kind of experiment: Affinity by bio-layer interferometry (ForteBio RED) or surface plasmon resonance (Biacore 2000). The format is binding. The note with it: surface plasmon resonance. On the procedure:
Various methods were used to analyze the binding and immunochemical characteristics of selected SEZ6 modulators generated as set forth above. Specifically, a number of the antibody modulators were characterized as to affinity, binning, and cross reactivity with regard to human, cynomolgus, rat and mouse SEZ6 antigen along with SEZ6L and SEZ6L2 proteins by art-recognized methods including flow cytometry. Affinities and kinetic constants kon and koff of the selected modulators were measured using bio-layer interferometry analysis on a ForteBio RED (ForteBio, Inc.) or surface plasmon resonance using a Biacore 2000 each according to the manufacturer's instructions.
To verify the cross reactivity data above for rat SEZ6 and to determine the affinity and kinetic constants kon and koff of the selected effectors, either bio-layer interferometry analysis on a ForteBio RED (ForteBio, Inc.) or surface plasmon resonance on a Biacore 2000 (GE Healthcare) were conducted. Affinities were determined to both human recombinant SEZ6-His and rat recombinant SEZ6-His generated in Example 5.
Binding characteristics of the following humanized constructs from Example 8, hSC17.16, hSC17.17, hSC17.24, hSC17.28, hSC17.34 and hSC17.46, were analyzed in order to determine whether the CDR grafting process had appreciably altered their binding characteristics. […]
On the technique in general: BLI is a label-free optical method that tracks binding on a fibre tip over time.

A further assay deals with T2, SEZ6 ECD (Homo sapiens, UniProt Q53EL9).
T2 construct: SEZ6 extracellular domain (amino acids 1-904); expressed in transfected cells; host or cells: yeast (surface display, Cochran et al. protocol)
Description: Fine epitope mapping (phage display peptide library or yeast-displayed SEZ6 ECD mutants). It counts as binding. The conditions noted are these: epitope conformational (discontinuous) or linear. The procedure: Epitopes were classified either as conformational (i.e. discontinuous) or linear. Yeast displaying the SEZ6 ECD construct was heat treated for 30 minutes at 80° C. in order to denature the antigen, washed twice in ice-cold PBSA and then subjected to the same staining protocol and flow cytometry analysis as described above. Antibodies that bound to both the denatured and native yeast were classified as binding to a linear epitope, whereas antibodies that bound native yeast but not denatured yeast were classified as conformationally specific.
Fine epitope mapping was further performed on selected antibodies to determine the specific amino acids to which they bound. Antibodies that bound to a linear epitope were mapped using the Ph.D.-12 phage display peptide library kit (New England Biolabs E8110S). The antibody selected for epitope mapping was coated onto a Nunc MaxiSorp tube (Nunc) at 50 μg/mL in 3 mL 0.1 M sodium bicarbonate solution, pH 8 and incubated overnight. The tube was blocked with 3% BSA solution in bicarbonate solution. Then, 10^11 input phage in PBS+0.1% Tween-20 was allowed to bind, followed by ten consecutive washes with 0.1% Tween-20 to wash away non-binding phage. […] Phage binding was detected using horseradish peroxidase conjugated anti-M13 antibody (GE Healthcare), and the 1-Step Turbo TMB ELISA solution (Pierce). […]

B1: hSC17.24: humanized (CDR grafted) anti-SEZ6 antibody derived from SC17.24 (antibody, V domains shown)
VH: EVQLVQSGAEVKKPGATVKISCKVSGYTFTDHTIHWVRQAPGKGLEWIGYIYPRDGSTKYNEEFKGRVTITADTSTDTAYMELSSLRSEDTAVYYCARSYSNYFDYWGQGTTVTVSS
VL: DIVMTQSPDSLAVSLGERATINCKSSQSLLYSSNQKSYLAWYQQKPGQPPKLLIYWASTRESGVPDRFSGSGSGTDFTLTISSLQAEDVAVYYCKQSYNLRTFGGGTKVEIK
modifications: Humanized hSC17.24 VH; Humanized hSC17.24 VL
As to B1, the “binding affinity compared with corresponding murine or chimeric antibody” value in assay [1] is on record as “equivalent or better than the corresponding murine antibodies”.

B2: SC17.200: murine anti-SEZ6 antibody (antibody, V domains shown)
VH: QVQLQQSGPELVKPGASVKISCKASGYAFSSSWINWVKQRPGQGLEWIGRIYPGEGDTNYSGNFEGKATLTADKSSTTAYMQLSSLTSVDSAVYFCTRGLVMDYWGQGTALTVSS
VL: DIVLTQSPASLAVSLGQRATIFCRASQSVDYNGISYMHWFQQKPGQPPKLLIYAASNVQSGIPARFSGSGSGTDFTLNIHPVEEEDAATFYCQQSIEDPPTFGGGTKLEIK
modifications: Murine SC17.200 VH; Murine SC17.200 VL
notes: murine anti-SEZ6 antibody
B2: the Discontinuous entry with SEZ6 ECD is listed as “Yes”.
